Laboratory results from publication PMC11853025.
Substitutions are numbered along the chain they refer to. In names and notes the source's numbering stands. Results are given in words; binding and its absence hold for the method and conditions named. Some entries that bind do so weakly or less than the wild type. For some of these results: Sequences can lack the tags named with a protein. One block for each binder: values may come before it.

By UniProt entry, the sequences of proteins in these tests, tags left out. Where a name states a change or a piece, a line headed by the entry shows the natural chain unless it says otherwise. Residues count along the entry.
UniProt P01024, residues 955-1303: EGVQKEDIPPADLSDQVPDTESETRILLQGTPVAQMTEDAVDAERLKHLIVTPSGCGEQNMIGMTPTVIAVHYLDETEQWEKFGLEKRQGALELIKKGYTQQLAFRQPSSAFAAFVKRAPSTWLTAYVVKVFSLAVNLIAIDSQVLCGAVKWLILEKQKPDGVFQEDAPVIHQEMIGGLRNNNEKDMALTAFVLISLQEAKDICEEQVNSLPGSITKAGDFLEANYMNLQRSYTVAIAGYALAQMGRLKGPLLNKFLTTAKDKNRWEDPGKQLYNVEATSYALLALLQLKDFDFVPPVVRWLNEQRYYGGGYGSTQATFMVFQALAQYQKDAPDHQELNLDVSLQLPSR
UniProt P13598, residues 25-223: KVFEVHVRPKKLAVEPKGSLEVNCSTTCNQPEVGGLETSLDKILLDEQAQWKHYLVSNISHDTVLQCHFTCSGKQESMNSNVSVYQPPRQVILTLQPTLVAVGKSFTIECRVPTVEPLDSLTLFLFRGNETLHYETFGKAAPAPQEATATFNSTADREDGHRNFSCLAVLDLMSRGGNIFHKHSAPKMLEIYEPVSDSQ
UniProt P05362, residues 28-480: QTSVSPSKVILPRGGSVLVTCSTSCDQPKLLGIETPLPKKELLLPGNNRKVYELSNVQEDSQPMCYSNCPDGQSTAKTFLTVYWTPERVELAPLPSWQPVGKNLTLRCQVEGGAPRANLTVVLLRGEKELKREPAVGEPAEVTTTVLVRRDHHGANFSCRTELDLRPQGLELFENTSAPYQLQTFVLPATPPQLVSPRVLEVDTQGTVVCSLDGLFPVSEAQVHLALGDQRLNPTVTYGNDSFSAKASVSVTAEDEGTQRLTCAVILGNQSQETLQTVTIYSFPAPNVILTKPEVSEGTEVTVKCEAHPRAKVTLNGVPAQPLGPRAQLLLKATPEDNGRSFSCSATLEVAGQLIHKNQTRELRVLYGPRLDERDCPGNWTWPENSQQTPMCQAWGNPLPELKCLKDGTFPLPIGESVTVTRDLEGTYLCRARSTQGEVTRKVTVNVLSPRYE

Assays:
[1] = target: C3dg (UniProt P01024); test: SPR; C3b deposited on a CM5 chip (amine-coupled seed, then convertase-mediated deposition to about 5000 RU), iC3b and C3dg made from it on the chip; αI domains injected as dilution series, 120 s; Biacore T200, 25 °C; HBST (10 mM HEPES, 150 mM NaCl, 0.005% Tween-20, pH 7.4) with 1 mM MgCl2; Langmuir 1:1 fit, KD calculated; both purified
[2] = target: C3b (UniProt P01024); test: as above
[3] = target: ICAM-2 (recombinant, Sino Biological 10332-H03H) (UniProt P13598); test: SPR; ICAM-1, ICAM-2, ICAM-3 amine-coupled to a CM5 chip; αI domains injected; 25 °C; HBST with 1 mM MgCl2; both purified
[4] = target: T1, ICAM-3 (recombinant, Sino Biological 10333-H03H) (UniProt P32942); test: as above
T1 sequence: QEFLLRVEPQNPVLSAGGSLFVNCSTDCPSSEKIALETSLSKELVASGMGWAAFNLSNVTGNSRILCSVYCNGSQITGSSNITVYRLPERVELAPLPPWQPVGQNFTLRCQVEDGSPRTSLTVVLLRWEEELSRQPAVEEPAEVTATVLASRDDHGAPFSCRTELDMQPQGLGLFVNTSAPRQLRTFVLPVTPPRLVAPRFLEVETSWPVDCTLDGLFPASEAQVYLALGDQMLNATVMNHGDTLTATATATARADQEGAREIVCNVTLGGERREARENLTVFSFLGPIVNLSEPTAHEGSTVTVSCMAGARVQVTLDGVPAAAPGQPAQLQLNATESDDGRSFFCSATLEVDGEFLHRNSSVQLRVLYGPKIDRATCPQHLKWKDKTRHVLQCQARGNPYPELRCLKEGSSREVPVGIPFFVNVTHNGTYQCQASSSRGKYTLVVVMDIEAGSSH

[5] = target: ICAM-1 (recombinant, Sino Biological 10346-H03H) (UniProt P05362); test: as above
[6] = target: C3dg (UniProt P01024); test: SPR; as a1 but HBST with 5 mM EDTA instead of MgCl2; C3 fragments on the chip, αI domains injected; both purified
[7] = target: C3b (UniProt P01024); test: as above

B3: CR4 αXI domain, wild type (WT) (domain or fragment, UniProt P20702 148-336)
chain: QEQDIVFLIDGSGSISSRNFATMMNFVRAVISQFQRPSTQFSLMQFSNKFQTHFTFEEFRRSSNPLSLLASVHQLQGFTYTATAIQNVVHRLFHASYGARRDAAKILIVITDGKKEGDSLDYKDVIPMADAAGIIRYAIGVGLAFQNRNSWKELNDIASKPSQEHIFKVEDFDALKDIQNQLKEKIFAI
binding [3]: binds weakly
binding [4]: binds weakly
binding [5]: binds weakly

B4: CR4 αXI domain, high-affinity (HA) variant p.I333G (domain or fragment, UniProt P20702 148-336)
chain: B3 chain with I186G
binding [6]: no binding (condition: with 5 mM EDTA)
binding [7]: no binding (condition: with 5 mM EDTA)
binding [5]: binds weakly

Results, then the binder that gave them:

binding [1]: no binding
binding [2]: no binding
B1: CD11d αDI domain, high-affinity (HA) variant p.I332G (domain or fragment, UniProt Q13349 145-334)
chain: PHQEMDIVFLIDGSGSIDQNDFNQMKGFVQAVMGQFEGTDTLFALMQYSNLLKIHFTFTQFRTSPSQQSLVDPIVQLKGLTFTATGILTVVTQLFHHKNGARKSAKKILIVITDGQKYKDPLEYSDVIPQAEKAGIIRYAIGVGHAFQGPTARQELNTISSAPPQDHVFKVDNFAALGSIQKQLQEKGYA

binding [3]: no binding
binding [4]: no binding
binding [5]: no binding
binding [1]: no binding
binding [2]: no binding
B2: CD11d αDI domain, wild type (WT) (domain or fragment, UniProt Q13349 145-334)
chain: B1 chain with G188I
